In publication PMC9911399, “Two distinct binding modes provide the RNA-binding protein RbFox with extraordinary sequence specificity” one finds binding signal data, which are given here for 31 molecules.

First the molecules themselves.
T1: RBFOX1 RRM RbFoxmut (Fox-RRM*) (Homo sapiens, UniProt Q9NWB1 109-208, R118D;E147R;N151S;E152T)
T1 sequence: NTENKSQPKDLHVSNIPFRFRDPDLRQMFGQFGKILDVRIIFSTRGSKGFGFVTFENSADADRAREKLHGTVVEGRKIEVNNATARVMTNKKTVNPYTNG

B1: UGAGCAA (DNA:RNA)
RNA: GGGAGACCGGAAUUCAGAUUGUCCUGAGCAAUUAAAUCCCGUCGUAGCCACCA
DNA 1: CAATCTGAATTCCGGTCTCCC
DNA 2: TGGTGGCTACGACGGGATT
B2: UUCUCUU (DNA:RNA)
RNA: B1 RNA with G26U, A27C, G28U, A30U, A31U
DNA 1: CAATCTGAATTCCGGTCTCCC
DNA 2: TGGTGGCTACGACGGGATT
B3: CCGGCAG (DNA:RNA)
RNA: B1 RNA with U25C, G26C, A27G, A31G
DNA 1: CAATCTGAATTCCGGTCTCCC
DNA 2: TGGTGGCTACGACGGGATT
B4: UGAUUGU (DNA:RNA)
RNA: B1 RNA with G28U, C29U, A30G, A31U
DNA 1: CAATCTGAATTCCGGTCTCCC
DNA 2: TGGTGGCTACGACGGGATT
B5: AUGGGGU (DNA:RNA)
RNA: B1 RNA with U25A, G26U, A27G, C29G, A30G, A31U
DNA 1: CAATCTGAATTCCGGTCTCCC
DNA 2: TGGTGGCTACGACGGGATT
B6: AGAUGUC (DNA:RNA)
RNA: B1 RNA with U25A, G28U, C29G, A30U, A31C
DNA 1: CAATCTGAATTCCGGTCTCCC
DNA 2: TGGTGGCTACGACGGGATT
B7: CGACAGA (DNA:RNA)
RNA: B1 RNA with U25C, G28C, C29A, A30G
DNA 1: CAATCTGAATTCCGGTCTCCC
DNA 2: TGGTGGCTACGACGGGATT
B8: GGUUGUU (DNA:RNA)
RNA: B1 RNA with U25G, A27U, G28U, C29G, A30U, A31U
DNA 1: CAATCTGAATTCCGGTCTCCC
DNA 2: TGGTGGCTACGACGGGATT
B9: AAAGAAU (DNA:RNA)
RNA: B1 RNA with U25A, G26A, C29A, A31U
DNA 1: CAATCTGAATTCCGGTCTCCC
DNA 2: TGGTGGCTACGACGGGATT
B10: GUAUGAG (DNA:RNA)
RNA: B1 RNA with U25G, G26U, G28U, C29G, A31G
DNA 1: CAATCTGAATTCCGGTCTCCC
DNA 2: TGGTGGCTACGACGGGATT
B11: GCACCCU (DNA:RNA)
RNA: B1 RNA with U25G, G26C, G28C, A30C, A31U
DNA 1: CAATCTGAATTCCGGTCTCCC
DNA 2: TGGTGGCTACGACGGGATT
B12: CAUCACG (DNA:RNA)
RNA: GGGAGACCGGAAUUCAGAUUGUCCCAUCACGUUAAAUCCCGUCGUAGCCACCA
DNA 1: CAATCTGAATTCCGGTCTCCC
DNA 2: TGGTGGCTACGACGGGATT
B13: GUGGCCC (DNA:RNA)
RNA: B1 RNA with U25G, G26U, A27G, A30C, A31C
DNA 1: CAATCTGAATTCCGGTCTCCC
DNA 2: TGGTGGCTACGACGGGATT
B14: UAGUGGG (DNA:RNA)
RNA: B12 RNA with C25U, U27G, C28U, A29G, C30G
DNA 1: CAATCTGAATTCCGGTCTCCC
DNA 2: TGGTGGCTACGACGGGATT
B15: CGCGAAC (DNA:RNA)
RNA: B1 RNA with U25C, A27C, C29A, A31C
DNA 1: CAATCTGAATTCCGGTCTCCC
DNA 2: TGGTGGCTACGACGGGATT
B16: UUAGGUU (DNA:RNA)
RNA: B1 RNA with G26U, C29G, A30U, A31U
DNA 1: CAATCTGAATTCCGGTCTCCC
DNA 2: TGGTGGCTACGACGGGATT
B17: UGCUUCA (DNA:RNA)
RNA: B1 RNA with A27C, G28U, C29U, A30C
DNA 1: CAATCTGAATTCCGGTCTCCC
DNA 2: TGGTGGCTACGACGGGATT
B18: UGAGGUG (DNA:RNA)
RNA: B1 RNA with C29G, A30U, A31G
DNA 1: CAATCTGAATTCCGGTCTCCC
DNA 2: TGGTGGCTACGACGGGATT
B19: UCCUAGA (DNA:RNA)
RNA: B1 RNA with G26C, A27C, G28U, C29A, A30G
DNA 1: CAATCTGAATTCCGGTCTCCC
DNA 2: TGGTGGCTACGACGGGATT
B20: ACAAGUA (DNA:RNA)
RNA: B1 RNA with U25A, G26C, G28A, C29G, A30U
DNA 1: CAATCTGAATTCCGGTCTCCC
DNA 2: TGGTGGCTACGACGGGATT
B21: CCAUGAG (DNA:RNA)
RNA: B12 RNA with A26C, U27A, C28U, A29G, C30A
DNA 1: CAATCTGAATTCCGGTCTCCC
DNA 2: TGGTGGCTACGACGGGATT
B22: CGUGAUU (DNA:RNA)
RNA: B12 RNA with A26G, C28G, C30U, G31U
DNA 1: CAATCTGAATTCCGGTCTCCC
DNA 2: TGGTGGCTACGACGGGATT
B23: CUCCGUC (DNA:RNA)
RNA: B12 RNA with A26U, U27C, A29G, C30U, G31C
DNA 1: CAATCTGAATTCCGGTCTCCC
DNA 2: TGGTGGCTACGACGGGATT
B24: AGGGCCA (DNA:RNA)
RNA: B1 RNA with U25A, A27G, A30C
DNA 1: CAATCTGAATTCCGGTCTCCC
DNA 2: TGGTGGCTACGACGGGATT
B25: ACUACUG (DNA:RNA)
RNA: B12 RNA with C25A, A26C, C28A, A29C, C30U
DNA 1: CAATCTGAATTCCGGTCTCCC
DNA 2: TGGTGGCTACGACGGGATT
B26: UCAAGCA (DNA:RNA)
RNA: B1 RNA with G26C, G28A, C29G, A30C
DNA 1: CAATCTGAATTCCGGTCTCCC
DNA 2: TGGTGGCTACGACGGGATT
B27: UGGAGAG (DNA:RNA)
RNA: B1 RNA with A27G, G28A, C29G, A31G
DNA 1: CAATCTGAATTCCGGTCTCCC
DNA 2: TGGTGGCTACGACGGGATT
B28: CGUGGAG (DNA:RNA)
RNA: B12 RNA with A26G, C28G, A29G, C30A
DNA 1: CAATCTGAATTCCGGTCTCCC
DNA 2: TGGTGGCTACGACGGGATT
B29: CUACAGC (DNA:RNA)
RNA: B12 RNA with A26U, U27A, C30G, G31C
DNA 1: CAATCTGAATTCCGGTCTCCC
DNA 2: TGGTGGCTACGACGGGATT
B30: AGUCACU (DNA:RNA)
RNA: B12 RNA with C25A, A26G, G31U
DNA 1: CAATCTGAATTCCGGTCTCCC
DNA 2: TGGTGGCTACGACGGGATT
B31: UUGGCGC (DNA:RNA)
RNA: B1 RNA with G26U, A27G, A30G, A31C
DNA 1: CAATCTGAATTCCGGTCTCCC
DNA 2: TGGTGGCTACGACGGGATT

Numbering of substitutions follows the chain as printed; changes in the protein carry UniProt numbers. The list shows a part of the results.

The experiment addresses T1, RBFOX1 RRM RbFoxmut (Fox-RRM*). The experiment is described as follows: EMSA; HiTS-Eq, 1 nM pool, 10 min; buffer printed only for the single-RNA assays: 10 mM Tris pH 7.5, 150 mM NaCl, 3.4 mM EDTA, 0.001% NP-40, 30 C. The note with it: tags: His6 N-terminal (pET28a); label: 5' 32P. The essentials:
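A pool of RNA with 7 randomized nucleotides, 5′-radiolabelled and with DNA-annealed flanks, was equilibrated at 1 nM for 10 min in 50 µL with purified RbFox RRM, wild type or mutant, across increasing protein concentrations. Free RNA was separated by 8% native PAGE, excised, reverse-transcribed, barcoded by PCR and sequenced. Relative association constants were obtained from read-count changes of each RNA species versus the control reaction and normalised to the cognate motif.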
As to B1, the binding signal was 0.0622 KA relative to UGCAUGU. Turning to B2, the binding signal is 0.0504 KA relative to UGCAUGU. For B3, the binding signal was 0.107 KA relative to UGCAUGU. With B4, the binding signal was 0.308 KA relative to UGCAUGU. Next, B5: 0.136 KA relative to UGCAUGU; B6: 0.141 KA relative to UGCAUGU.

Regarding B7, the binding signal was 0.0472 KA relative to UGCAUGU.

On to B8, for which the binding signal was 0.147 KA relative to UGCAUGU.

As to B9, the binding signal was 0.0976 KA relative to UGCAUGU.

For B10, the binding signal is 0.513 KA relative to UGCAUGU. To B11 belongs 0.0722 KA relative to UGCAUGU.

For B12, the binding signal is 0.124 KA relative to UGCAUGU.

Consider B13, for which the binding signal is 0.0951 KA relative to UGCAUGU. B14: the binding signal is 0.109 KA relative to UGCAUGU. Next, B15: 0.0649 KA relative to UGCAUGU; B16: 0.108 KA relative to UGCAUGU. Next, B17: 0.21 KA relative to UGCAUGU; B18: 0.125 KA relative to UGCAUGU. Next, B19: 0.138 KA relative to UGCAUGU; B20: 0.153 KA relative to UGCAUGU. Regarding B21, the binding signal was 0.0979 KA relative to UGCAUGU.

For the molecule B22, the binding signal is 0.106 KA relative to UGCAUGU.

For the molecule B23, the binding signal is 0.116 KA relative to UGCAUGU.

Take B24: the binding signal is 0.0783 KA relative to UGCAUGU. With B25, the binding signal is 0.108 KA relative to UGCAUGU. B26: the binding signal is 0.11 KA relative to UGCAUGU. Next, B27: 0.108 KA relative to UGCAUGU.

For B28, the binding signal was 0.144 KA relative to UGCAUGU. Regarding B29, the binding signal was 0.0608 KA relative to UGCAUGU.

Take B30: the binding signal was 0.0668 KA relative to UGCAUGU.

As for B31, the binding signal is 0.108 KA relative to UGCAUGU.
